{"source": "patent US20150320880A1", "about": "“ANTIBODY DRUG CONJUGATES” (NOVARTIS AG, priority 2013, published 2015)", "key": {"[1]": {"assay": "Serum PK (anti-human IgG1 ELISA, anti-DM ELISA) in NCI-H526 xenograft mice", "format": "in vivo, mouse", "conditions": "single i.v. dose 1.25, 2.5 and 5 mg/kg"}, "[2]": {"test_system": "NCI-H526 small cell lung cancer xenograft"}, "[3]": {"test_system": "GIST T1 subcutaneous tumor xenograft", "protocol": "The anti-tumor activity of anti-cKIT ADCs was evaluated in several tumor xenograft models."}, "[4]": {"test_system": "NCI-H1048 small cell lung cancer xenograft", "assay": "NCI-H1048 small cell lung cancer xenograft efficacy", "format": "in vivo, mouse", "protocol": "All treated groups received a single intravenous dose of 2 mg/kg."}, "[5]": {"test_system": "cKIT receptor in NCI-H526 (wildtype cKIT) cells", "assay": "cKIT degradation time course (Western blot, cycloheximide)", "format": "cell-based", "protocol": "5×10^6 of GIST-T1 (kindly provided by Dr. Takahiro Taguchi, Kochi U., Japan) or NCI-H526 (ATCC CRL-5811) cells were seeded in growth media (DMEM, 10% FBS for GIST T-1 and RPMI, 10% FBS for NCI-H526) the night before at 37° C. with 5% CO2. Cells were then treated with 100 mM cycloheximide (CHX) (Cat#090M4009, Sigma-Aldrich, St. Louis, Mo.) in methionine free medium (GIBCO: DMEM, 21013-024; RPMI, A14517-01, Life Technologies, Carlsbad, Calif.). […] Cells were harvested at 1 hour, 4 hour, and 6 hour post treatment in 1 ml PBS. […] Lysates were then spun down for 40 mins at 12,000 rpm at 4° C. Five μg of each sample was boiled for 10 min at 75° C. and loaded on a 15-well NuPAGE® 4-12% Bis-Tris gel (NP0323BOX Life Technologies, Carlsbad, Calif.). After protein transfer to membrane blots, membranes were blocked in TBST-5% milk at room temperature for 1 hour and then probed with anti cKIT antibody (Cell Signaling Technology Cat#3074, Beverly, Mass.) overnight at 4° C. Blots were washed in TBST (4×5 mins) the next day. The blot was incubated in the secondary antibody (goat-anti rabbit-HRP 1:30,000, Santa Cruz Biotechnologies, Dallas, Tex.) for 1 hour at room temperature. The blot was washed in TBST (4×5 mins) and developed. The primary antibodies used for Western blotting were anti-cKIT (Cell Signaling Technology Cat#3074) and GAPDH (Cell Signaling Technology Cat#3683). […]"}, "[6]": {"test_system": "GIST T1 subcutaneous tumor xenograft", "assay": "In vivo pharmacodynamic marker modulation (pHH3, cleaved caspase 3 IHC)", "set-up": "species or system mouse", "conditions": "single i.v. dose 5 mg/kg", "source_text": "The goal of these studies was to evaluate the degree and duration of G2/M cell cycle arrest.\nPresence of ADC was indirectly estimated by detecting human IgG antibody (which is NEG027 in the mouse) in the tumor using an immunohistochemical approach. […] The antibody reacts with whole molecule human IgG and the light chains of other human immunoglobulins with minimal cross-reaction to mouse serum proteins. Briefly, the IHC protocol included heat and standard exposure to Ventana Cell Conditioning #1 antigen retrieval reagent (Ventana, Tucson, Ariz.).\nAccumulation of pHH3 positive nuclei, as assessed by immunohistochemistry, was used as a marker of G2/M arrest. […] Briefly, the IHC protocol included heat and standard exposure to Ventana Cell Conditioning #1 antigen retrieval reagent. The primary antibody was diluted to 1:50 and incubated for 60 minutes at room temperature.\nTime dependent changes in cleaved caspase 3 were also evaluated. In these studies, a rabbit polyclonal antibody produced by immunizing animals with a synthetic peptide corresponding to amino-terminal residues adjacent to (Asp175) in human caspase-3 was obtained from EMD Millipore (Cat#PC679). […]\nAccumulation of phospho-Histone H3 (pHH3) positive nuclei, as assessed by immunohistochemistry, was used as a marker of G2/M arrest. […]"}, "[7]": {"test_system": "HAMLX5343 systemic primary AML xenograft"}, "GIST430 tumor xenograft": {"test_system": "GIST430 tumor xenograft", "conditions": "for anti-tumor activity (tumor volume): SCID-beige mice"}, "[8]": {"conditions": "Day 19, 1.25 mg/kg Single Dose IV"}, "[9]": {"conditions": "Day 38, 1.25 mg/kg Single Dose IV"}, "[10]": {"conditions": "SCID-beige mice, single intravenous dose of 2 mg/kg"}, "[11]": {"conditions": "Day 71, 10 mg/kg Every 2 weeks, intravenously"}, "[12]": {"conditions": "Day 28, 10 mg/kg Single Dose IV"}}, "note": "Entries after “also recorded” stand apart in the source; their conditions may differ. Like-named read-outs stand apart in the source and are kept apart here.", "data": [{"molecule": "NEG085-MCC-DM1: NEG085 conjugated to DM1 via SMCC (conjugate) heavy: EVQLVESGGGLVQPGGSLRLSCAASGFAFSGYYMAWVRQAPGKGLEWVANINYPGSSTYYLDSVKGRFTISRDNAKNSLYLQMNSLRAEDTAVYYCARGDYYGTTYWYFDVWGQGTTVTVSSASTKGPSVFPLAPSSKSTSGGTAALGCLVKDYFPEPVTVSWNSGALTSGVHTFPAVLQSSGLYSLSSVVTVPSSSLGTQTYICNVNHKPSNTKVDKRV[human IgG1 Fc omitted here] light: DIQMTQSPSSLSASVGDRVTITCRASQSISSYLNWYQQKPGKAPKLLIYYTSRLQSGVPSRFSGSGSGTDFTLTISSLQPEDFATYYCQQGRRLWSFGGGTKVEIKRTVAAPSVFIFPPSDEQLKSGTASVVCLLNNFYPREAKVQWKVDNALQSGNSQESVTEQDSKDSTYSLSSTLTLSKADYEKHKVYACEVTHQGLSSPVTKSFNRGEC", "values": [{"measurement": "serum exposure of the total antibody and ADC", "setting": "[1]", "value": "dose dependent serum exposure"}, {"measurement": "Mean change of body weight (% ± SEM)", "setting": "[2]; [8]", "value": "−0.2 ± 0.8", "unit": "%"}, {"measurement": "Mean change of tumor volume (mm3 ± SEM)", "setting": "[2]; [8]", "value": "99 ± 57", "unit": "mm3"}, {"measurement": "Mean change of tumor volume vs control (T/C) (%)", "setting": "[2]; [8]", "value": 8, "unit": "%"}, {"measurement": "Survival (Survivors/total)", "setting": "[2]; [8]", "value": "8/9"}, {"measurement": "Mean change of body weight (% ± SEM)", "setting": "[2]; Day 19, 5 mg/kg Single Dose IV", "value": "3.8 ± 1.5", "unit": "%"}, {"measurement": "Mean change of tumor volume (mm3 ± SEM)", "setting": "[2]; Day 19, 5 mg/kg Single Dose IV", "value": "−174 ± 10", "unit": "mm3"}, {"measurement": "Survival (Survivors/total)", "setting": "[2]; Day 19, 5 mg/kg Single Dose IV", "value": "9/9"}, {"measurement": "tolerability", "setting": "[2]; Example 32, 1.25, 2.5 and 5 mg/kg single i.v. dose", "value": "well tolerated"}, {"measurement": "time to tumor regrowth after the single treatment", "setting": "[2]; Example 32, 2.5 and 5 mg/kg", "value": "approximately 3 weeks"}, {"measurement": "anti-tumor activity (tumor volume)", "setting": "[2]; Example 32, single i.v. dose 1.25 mg/kg", "value": "initially induced stasis in tumor volume followed by tumor regrowth"}, {"measurement": "anti-tumor activity (tumor volume)", "setting": "[2]; Example 32, single i.v. dose 5 mg/kg", "value": "significantly efficacious"}, {"measurement": "Mean change of body weight (% ± SEM)", "setting": "[3]; [9]", "value": "2.1 ± 2.2", "unit": "%"}, {"measurement": "Mean change of tumor volume (mm3 ± SEM)", "setting": "[3]; [9]", "value": "712 ± 225", "unit": "mm3"}, {"measurement": "Mean change of tumor volume vs control (ΔT/ΔC) (%)", "setting": "[3]; [9]", "value": 63, "unit": "%"}, {"measurement": "Survival (Survivors/total)", "setting": "[3]; [9]", "value": "9/9"}, {"measurement": "Mean change of body weight (% ± SEM)", "setting": "[3]; Day 38, 5 mg/kg Single Dose IV", "value": "1.6 ± 1.2", "unit": "%"}, {"measurement": "Mean change of tumor volume (mm3 ± SEM)", "setting": "[3]; Day 38, 5 mg/kg Single Dose IV", "value": "140 ± 63", "unit": "mm3"}, {"measurement": "Mean change of tumor volume vs control (ΔT/ΔC) (%)", "setting": "[3]; Day 38, 5 mg/kg Single Dose IV", "value": 12, "unit": "%"}, {"measurement": "Survival (Survivors/total)", "setting": "[3]; Day 38, 5 mg/kg Single Dose IV", "value": "9/9"}, {"measurement": "tolerability", "setting": "[3]; Example 31, 1.25, 2.5 or 5 mg/kg single i.v. dose", "value": "well tolerated at all dose levels"}, {"measurement": "anti-tumor activity (tumor volume)", "setting": "[3]; SCID-beige mice, single i.v. dose 0.625 mg/kg, 0.625 mg/kg", "value": "smallest tumor volumes in the tightest range; also recorded: low efficacy, although also not statistically significant"}, {"measurement": "anti-tumor activity (tumor volume)", "setting": "[4]; [10]", "value": "not statistically different from the vehicle"}, {"measurement": "ΔT/ΔC", "setting": "[4]; [10]", "value": 9, "unit": "%"}, {"measurement": "anti-tumor activity (tumor volume)", "setting": "[4]; single i.v. dose 5 mg/kg", "value": "significantly efficacious"}, {"measurement": "anti-tumor activity (tumor volume)", "setting": "[4]; single i.v. dose 10 mg/kg", "value": "significantly efficacious"}, {"measurement": "cKIT receptor degradation", "setting": "[5]; 5 μg/ml ADC, 1, 4 or 6 hours", "value": "very low/undetectable after 6 hours"}, {"measurement": "blocking of cKIT receptor from binding SCF", "setting": "[5]; ADC with and without 10 ng/ml rh-SCF", "value": "does not block the cKIT receptor from binding SCF"}, {"measurement": "percentage of cells positive for pHH3", "setting": "[6]", "value": "marked, time-dependent increase"}, {"measurement": "time of peak pHH3 positivity post dose", "setting": "[6]", "value": "1-2 days"}, {"measurement": "tolerability", "setting": "[7]; 10 mg/kg intravenously once every two weeks", "value": "well tolerated"}, {"measurement": "Mean change of body weight (from day 67, % ± SEM)", "setting": "[7]; [11]", "value": "1.8 ± 1.6", "unit": "%"}, {"measurement": "Mean change of tumor volume (% CD45 positive PBMC's ± SEM)", "setting": "[7]; [11]", "value": "37.4 ± 5.4", "unit": "% CD45 positive PBMC's"}, {"measurement": "Mean change of tumor volume vs control (T/C) (%)", "setting": "[7]; [11]", "value": 48.3, "unit": "%"}, {"measurement": "Survival (Survivors/total)", "setting": "[7]; [11]", "value": "6/6"}, {"measurement": "anti-tumor activity (leukemic burden)", "setting": "[7]; NSG mice, 10 mg/kg intravenously once every two weeks, 10 mg/kg", "value": "delayed tumor progression, including a brief regression following the second dose; also recorded: significantly efficacious compared to the untreated control"}, {"measurement": "tolerability", "setting": "GIST430 tumor xenograft; 2.5, 5 or 10 mg/kg single i.v. dose", "value": "well tolerated at all dose levels"}, {"measurement": "Mean change of body weight (% ± SEM)", "setting": "GIST430 tumor xenograft; Day 28, 5 mg/kg Single Dose IV", "value": "5.5 ± 1.8", "unit": "%"}, {"measurement": "Mean change of tumor volume (mm3 ± SEM)", "setting": "GIST430 tumor xenograft; Day 28, 5 mg/kg Single Dose IV", "value": "485 ± 70", "unit": "mm3"}, {"measurement": "Mean change of tumor volume vs control (ΔT/ΔC) (%)", "setting": "GIST430 tumor xenograft; Day 28, 5 mg/kg Single Dose IV", "value": 56, "unit": "%"}, {"measurement": "Survival (Survivors/total)", "setting": "GIST430 tumor xenograft; Day 28, 5 mg/kg Single Dose IV", "value": "8/8"}, {"measurement": "Mean change of body weight (% ± SEM)", "setting": "GIST430 tumor xenograft; [12]", "value": "1.5 ± 1.8", "unit": "%"}, {"measurement": "Mean change of tumor volume (mm3 ± SEM)", "setting": "GIST430 tumor xenograft; [12]", "value": "167 ± 42", "unit": "mm3"}, {"measurement": "Mean change of tumor volume vs control (ΔT/ΔC) (%)", "setting": "GIST430 tumor xenograft; [12]", "value": 19, "unit": "%"}, {"measurement": "Survival (Survivors/total)", "setting": "GIST430 tumor xenograft; [12]", "value": "8/8"}, {"measurement": "anti-tumor activity (tumor volume)", "setting": "GIST430 tumor xenograft; single i.v. dose 5 mg/kg", "value": "not significantly active"}, {"measurement": "anti-tumor activity (tumor volume)", "setting": "GIST430 tumor xenograft; single i.v. dose 10 mg/kg", "value": "significantly efficacious"}]}]}
